Experimental data reported in the supplement of paper PMC3334620.
The full ranking holds about 33,000 sequences; the median of “E-score (-0.5 to 0.5)” is about -0.056, and the highest 2% start at about 0.38. The list shows a part of the results.

The sequences below were run against Stb4 (UniProt P50104) (assay: PBM E-score (8-mer binding enrichment) (E-score (-0.5 to 0.5)); higher = stronger / more preferred TF binding; most listed sequences are background and not binding sites). Conditions: protein concentration: 200 nM; construct: GST-DNA-binding domain.
Method in brief: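 Using PURExpress in vitro transcription/translation, GST-tagged yeast transcription factors were made in full-length or DNA-binding-domain form. These were applied at about 100-200 nM to double-stranded universal all-10-mer Agilent arrays, and bound protein was detected with fluorescent anti-GST. Scans were normalised with masliner before the Universal PBM Analysis Suite assigned E-scores to ungapped eight-base words pooled with their reverse complements.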

Sequence	PBM E-score
CTTCCAGC	-0.0821
CAGTTTAA	-0.174
ACCTGGGA	-0.178
ACATTAGT	-0.122
GTAAGCAA	-0.0645
CCGCAGTA	0.0209
TACGAGGA	-0.193
AATACTTA	0.0173
TAATTCGA	-0.317
ATACTTAA	-0.00531
AATGCAAC	-0.147
CTTTTGGC	-0.233
CTGACATC	-0.0449
ATTTCAGC	-0.188
ACAGGCAA	-0.163
CATAGGGC	-0.0367
GACGGGTA	0.267
ATTGCCAA	-0.00793
AGAGCGGC	0.101
ATATGATC	-0.0133
GCCAAAGA	-0.174
GTGAAGCA	-0.201
AATGTGGA	-0.0863
CATTCAGG	-0.0881
ACCGATGC	0.228

Sequence	PBM E-score
CAAGAGCG	-0.136
GTAGACAC	0.0353
GAATGCGC	0.193
CGGTGTGA	0.105
CCTGGGGA	-0.351
ATGACTAA	-0.225
GCTGAGCC	-0.0483
AGCTTCAG	-0.13
AAGAAAGG	-0.218
AGAAAATG	0.0192
CATGCGAG	-0.118
ATCGAAGC	0.00427
ACAGGGAT	-0.125
ACCAACCA	-0.071
CAGGGACC	-0.176
CGTCGTTC	0.184
CAGGTAAA	0.0185
CACACCGA	0.202
ACATAACT	-0.108
GGTTGACA	-0.0583
CCCATTAC	-0.104
GGGCCGAC	0.311
GATACTGA	-0.00363
GCTGCTAC	-0.207
CCATCTAG	-0.18

Sequence	PBM E-score
CGTTTACA	-0.078
CTTGCTAA	-0.276
ACTCGGCG	0.326
ACCAAGAT	-0.0531
AGTGAAGG	-0.224
ACCGTATG	-0.168
CCACCAAA	-0.138
CCATGGGA	-0.117
AGCCCCAT	-0.213
CTTCCGTC	0.341
CATGAGAA	-0.0981
CCTGGGTA	-0.161
CCATTCAC	0.0131
AAAACCCT	-0.00393
CCGGGGCA	0.17
CCGCGGCA	0.278
AGCTTGAG	-0.15
CAACCATG	-0.055
GTGGCTCA	-0.125
ATCTCCAG	-0.197
AAAGCACC	0.038
CGTATGAG	-0.0445
ATCTGTGA	0.0405
CGCTTCCC	0.188
TAGTAGCA	-0.0308

Sequence	PBM E-score
AAAATCTG	-0.0543
GATGGGCA	-0.0313
TAATGCTA	-0.101
ACAGTCCA	-0.3
CAAGTCAA	-0.25
ACAAGAGG	-0.19
GGTTCCTA	-0.116
GATGGGAA	-0.0418
CCCCAACA	-0.282
CCTGAAGG	-0.22
GCACAAAC	-0.0633
CGCCCCGA	0.338
AGGTTAAG	-0.175
CTAGCGAA	-0.25
AGATGAAA	-0.0887
GGCGAGCC	0.0688
CGGTAACG	0.286
CGGCCTAA	0.163
CAGACGCA	-0.204
CATCGATC	-0.0474
CGTAAGGA	-0.195
GTGACGTA	-0.0498
AGAGTTCG	0.193
AGTTCCAG	-0.136
CCTCTCCC	0.0609

Sequence	PBM E-score
ATCGATGA	-0.158
AGTGCCGC	0.123
ACCTACGA	-0.199
CCAGTCGC	0.164
CACTGATA	-0.175
CCTCAGAA	-0.323
CAGGCCTA	-0.181
ATAAGATG	-0.0794
ATACCACC	0.0265
CATGCTAG	-0.223
CATATGTC	-0.0451
GTCGACTA	-0.101
CTTGCTCC	0.0505
GGTTCTAC	0.0111
CTCTATCC	0.126
GCTCAAAA	-0.00731
AATTCAAG	-0.00322
ACTTGGGA	-0.0874
CGGTGGTC	0.131
ACATTCAT	-0.13
AGCCAGGA	-0.311
ACCAGCAG	-0.38
CACTCTAC	0.0151
TCAAACCA	0.125
ATCGGGCA	0.125

Sequence	PBM E-score
TGCAACAA	-0.085
GGCTCACC	-0.0934
GTATTAGA	-0.0494
GCGGAGCC	0.0792
AAGGAAAG	-0.103
CCCTTATA	-0.16
CTCAAGTC	-0.234
AACGGGGC	0.0461
ATAGGACC	-0.0836
AATATGGT	0.0218
AAACGCCA	0.00323
CTTGTGAA	-0.198
AACGTCAA	-0.114
CGTAGTCC	-0.0835
AAGGTGCA	-0.0859
TTATTAAA	-0.085
CTCATGCA	-0.217
GGCATGCC	0.156
GATTGATA	-0.139
AGATTCGA	-0.352
AAAGACCT	-0.111
AGTAGCCA	-0.331
ATTTTCTC	0.00853
CATGCTGC	-0.136
CTGATAGA	-0.0412

Sequence	PBM E-score
CTCCTAAG	-0.254
GGGTGATA	0.0946
CACAGACA	-0.213
CCGATAAA	0.287
ATGCATTG	-0.171
AGGGGCCG	0.0651
CAGATGGA	0.0763
CGCGATAA	-0.135
AACAGGTC	-0.12
TGACAGAA	-0.205
ATGAAAAC	0.118
ACTACACA	-0.0504
ACCTTGTC	-0.191
AGAGTTCC	0.202
AGAGTCCG	0.0517
ACTCCGTG	0.0866
GATATACA	0.116
ATTACGCA	0.00056
CTATGCCC	-0.086
AAACTGGG	-0.067
GACCATCC	0.039
AAACCTCT	0.00543
CGAGGTCC	0.276
ATTCCATG	0.0553
CCCACTCC	-0.0203

Sequence	PBM E-score
AAGCCACA	-0.227
CATCTCCG	0.287
GCACACCA	-0.0223
ATTCTTCC	0.225
CCGCCATA	0.177
ATGTCTGC	-0.074
GCACTATA	-0.184
AACGACCC	0.146
TCGCGTCA	-0.13
CCCGGAGC	0.32
GTCCATTA	-0.172
GAAGGGAC	-0.172
ATGTTTCA	-0.0946
CCGGGACC	0.362
AAGACCAT	-0.0257
GAGATCAA	0.0208
CTCACAAG	-0.31
CGTATATA	-0.178
CCTATAGA	-0.14
CCCCGAAG	0.354
AAGCTGAT	0.104
CACAGCAC	-0.255
ACAAGTAC	-0.0461
AATTTTCG	0.0652
AGGACAAG	-0.276

Sequence	PBM E-score
GGCTACAC	0.0332
GGATCAAA	0.177
GACAGGTA	-0.0244
AGGGAGAG	-0.171
GGATCGCC	0.0259
AAAGACGA	-0.235
CACGTCGA	-0.211
AGCACTAA	-0.0361
AGGTAGGC	-0.159
CATTGAGG	-0.312
CCTTGGTA	-0.055
AGTTCTCC	-0.0367
ATCCATGG	-0.0608
CTAAATCC	0.205
GCTTGTAA	-0.109
CGGGATTC	0.305
CTTTGGTC	0.0244
AACGCTAA	-0.323
GGAACCGA	0.343
